From the supplement of paper PMC11417369
This is one part of the list.

system: PfAP2-HC AP2 domain (GST-tagged); assay: gcPBM binding intensity (ln(normalized median fluorescence intensity)); higher = stronger DNA binding
Summary of the method: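 An Agilent 4 × 180k array of primer-extended double-stranded 36-bp intergenic genomic probes, with negative controls, was incubated for 1 h with GST-tagged P. falciparum DNA-binding domains expressed in E. coli. Alexa488 anti-GST antibody detected bound protein, scanned at 488 nm. Binding intensity is the highest Masliner-normalised natural-log median intensity across replicate spots of either probe orientation.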

| Sequence | gcPBM binding intensity (ln) |
| --- | --- |
| AAAAAAAAAAAATACACACACACATATAAATATGTA [CACACA_site6900] | 10.3 |
| GTTTATATATGCTTATAATTTTCAATTGTTTTACAA [TGCATGCA_negctrl_site384] | 9.6 |
| ATATATATATATAATTGTACATTTTTAACCTTAACA [XGTACX_site7910] | 9.54 |
| TTTTATGTTTTTTTTATAAATATTAAAATTCTATAT [CACACA_negctrl_site1477] | 9.43 |
| ATATTGTTATATGTTTGTACATATTTTTTATATTTT [XGTACX_site6834] | 9.86 |
| AATGTTAAAAATGAAAGTACATGGAATTTATTATTT [XGTACX_site4095] | 9.62 |
| TCATGTTTTTAATATTGTACTCTCATTTTATATATC [XGTACX_site8412] | 9.68 |
| ATATTTACTCACGTCTTGCACTGAGCAAGCATTATA | 9.67 |
| AGCTATTAATTTATTACATGCAAGATTAAAAGACTA [TGCATGCA_site281] | 9.49 |
| GGTATTTATGGACGCGTGCACACACATATGAACAAA | 9.98 |
| TTTTGATTTTTTTATTGTACCCATAAACATATAATT [XGTACX_site5202] | 9.66 |
| TATTTTTGAAGTTGCACACACAAAAATAAAAAGTAT [CACACA_site418] | 9.88 |
| TACAAACAATTAAACAAACACACATATACATGTATA [CACACA_site2061] | 9.95 |
| ATTTTTTATGAAAACATAAAAAAATGAGATAACCAT [CACACA_negctrl_site894] | 9.58 |
| AAAAAAAAAAAAAAATCACACATTGGTTAAATATTA [CACACA_site5344] | 9.52 |
| CTATCAAATAATAGCAAACACACAAAAAATAAAAAA [CACACA_site4147] | 9.93 |
| ATTCATACATGCACACGTACATATTTAAATATAAAA [XGTACX_site8388] | 9.7 |
| TATTTATACATACGTACACACAAATATTAAAATATA [CACACA_site7004] | 9.85 |
| ATATATTATAAATGTAGTACCGTTACATAGTCATAG [XGTACX_site390] | 9.79 |
| CACACCACCAACAAAAGTACATACATATATATATAT [XGTACX_site5781] | 9.82 |
| TATATATTGCCCTTCACACACACACCCATATATATA [CACACA_site2493] | 10.3 |
| ACTACGAGTCGTAGAGTGCAGTCTGGAGAAAAGTAC [GTGCAC_site9769] | 9.63 |
| ATCAAGCACGAACACACACACACACGCACGCCCACA [CACACA_site6308] | 11.4 |

| Sequence | gcPBM binding intensity (ln) |
| --- | --- |
| ATTTTTTTTTTTTGTACATACCACATATACAAAACA [CACACA_negctrl_site1240] | 9.68 |
| TTTTTTTTTTTCTCCATACACACTTGATAAAACTTT [CACACA_site615] | 9.57 |
| TAATTGATTCTTCACCGTACTCACACATATATATAT [XGTACX_site6530] | 9.89 |
| ATACATATATGTGTGTGTACATAAATGTATATATTT [XGTACX_site6242] | 10.3 |
| GCATGGAACCATATATGTACATATATAAATAAATAA [XGTACX_site4996] | 9.66 |
| GTATCTTTCAAAATATGTACATATATATATGTGTGT [XGTACX_site3512] | 10.1 |
| AACTTTATTCCTAATTGTACACATATATATATATAT [XGTACX_site6823] | 10 |
| AATAGTAAAAGATATACACACACCAAAAAATAGAAT [CACACA_site2289] | 11.6 |
| ATTATACATATGTATGCACACATACATACACATATA [CACACA_site9155] | 9.96 |
| ATATATATATGTTTATGTACTTATAATAATATAACT [XGTACX_site4828] | 9.62 |
| TAATTTAAGAAAAAATGTACACAAATATAATAATAG [XGTACX_site8317] | 9.67 |
| AAAAAAAATATCTATGCATGTAATATTATGATATTG [TGCATGCA_site546] | 9.58 |
| TAACATTAAAATAAAAGTACTTAATAATATTAAGTA [XGTACX_site5920] | 9.64 |
| TTAATAATAAATGAAAGTACATATAAAAAAAAAAAA [XGTACX_site717] | 9.61 |
| CGTATAACATATGACACACACACATACATACACAAA [CACACA_site1803] | 10.4 |
| GATTTATATAATTCAAGTACTAAAAATATTTTTAAT [XGTACX_site5285] | 9.43 |
| TAAGACTATTAAAAAATTGAGTACATGAACTGTTCA [GTGCAC_negctrl_site670] | 9.41 |
| AAATATAAAAAATATACACACATATATAATATATAT [CACACA_site2963] | 9.9 |
| TGTATATTTGATTCATGTACATATTTTATTTTAACT [XGTACX_site5169] | 9.72 |
| CAGATTTATTCAAACGCATGCTGTTTTAAAATAAAA [TGCATGCA_site874] | 9.29 |
| CCTATATAATTATAATGTACTTGTAAAAAATATAAC [XGTACX_site2864] | 9.45 |
| AATGTATTTAAACTGACACACAAAAAAAATAAAATA [CACACA_site2138] | 9.93 |
| ATATTGTAAGTAAACACACACACATCTATAGGTATA [CACACA_site6462] | 10.6 |

| Sequence | gcPBM binding intensity (ln) |
| --- | --- |
| ATCCGCTGCCTTTTGGTGCAGAACATAATCATGTAA | 9.38 |
| TTTAAAATATTAAAATGTACATATATATATATATAT [XGTACX_site6784] | 9.59 |
| TATATATATATATATACACACATACATATATATATT [CACACA_site8185] | 9.79 |
| ACATAAATATATTTTTCACACATCCTTAGTTATGAA [CACACA_site5179] | 9.63 |
| AAATAACAAAAGAAGGTGCTCATAAAAATTCATACA [GTGCAC_site9864] | 9.65 |
| CATTTACCCTTATTAACACACAAAATAAAATACGCT [CACACA_site7249] | 9.81 |
| AACAATAGTAAAAATACACACATTAAACTTCATTTC [CACACA_site2126] | 9.97 |
| ATACAATGATATATACATATATATATATATATATAT [TGCATGCA_negctrl_site359] | 9.89 |
| AAATTATAAAAAAAAAAAAAAAAAAAAAAAAAAAAA [XGTACX_negctrl_site501] | 8.72 |
| AAAAAAAAAAAAAAAAAAAAAAAAAAAAAAAAAAAA [CACACA_negctrl_site204] | 9.14 |
| AAAAAAATTACGCAAGTGCATATAATTTAACAAAAA | 9.64 |
| ATATATATATATCACGCACACACGAATTTTAAATAT [CACACA_site3131] | 10.1 |
| AACATTTATATAAAAGAACACACATATAAAATATTA [CACACA_site9199] | 9.82 |
| ATCGCGAAGTAGCATTCACACACAGCAAAATATATA [CACACA_site9162] | 10 |
| AATGGTAATCCACATACACACACACCGACACATATA [CACACA_site8876] | 11.1 |
| ATATATACAACTAAAGAACACACATCATTGTTCATT [CACACA_site9224] | 9.94 |
| AAACAATTTTTTAAAAGTACTTGAAAATTGTGAAAT [XGTACX_site2461] | 9.63 |
| GAAAGGACAAGAATAGTGCACATGCAATGTTATTTT [GTGCAC_site9985] | 10 |
| ACAAAATTTTTAAGAACACACAAAAATGTACTATCG [CACACA_site2550] | 9.66 |
| AATCATGCTCCGGAAAGTACATAAATAAATAAATAA [XGTACX_site1690] | 9.56 |
| CACATACACATACAAACACACATTATGTATATATAT [CACACA_site1599] | 10.2 |
| AAAAAAAAAAAACATACACACATACATACATATATA [CACACA_site8222] | 10.6 |
| CATATATAAATATGTACACACATATGTATGATCTCA [CACACA_site3868] | 9.93 |

| Sequence | gcPBM binding intensity (ln) |
| --- | --- |
| TTATTTATAAGTAATATTATATATTCTTTTAATACA [CACACA_negctrl_site471] | 9.44 |
| TAAAATTTTTGTTTTTGTACGAAACATCAATTTTAC [XGTACX_site4963] | 9.65 |
| TTCTATATATTTGGAAGTACATTATATTTATTTTTT [XGTACX_site3172] | 9.65 |
| AATGGTATAAACAATACACACATAATATAAATATTG [CACACA_site6878] | 9.88 |
| TTATATATAAATGTGTGTACTTATAAAATAATCATT [XGTACX_site5370] | 9.68 |
| AGATCTATTATTTTTTGTACTTATATATAAACTTAA [XGTACX_site1737] | 9.64 |
| ATAGGCAAAAAGTGTACACATTCATTTATATAAATA [CACACA_site4480] | 9.8 |
| AGTGAATATCTAAAATGTACATAAATAAATAAATAA [XGTACX_site8293] | 9.73 |
| CGTTATATCAAAGGAGTGCATTATGAATACGTTTTA [GTGCAC_site9837] | 9.57 |
| TTAAAATTTTTCAAAAGTACATAAATAATATATATT [XGTACX_site4694] | 9.32 |
| AATATATTATATATATGTACATAATGTGTAATACCT [XGTACX_site2845] | 9.77 |
| TTTATTTGTTCATGCGTGCACTTGATAACAATGTAC [GTGCAC_site9561] | 9.63 |
| GGAAAAAAATATAAAAGTACTTTTTATTTATTTTAT [XGTACX_site7418] | 9.53 |
| TTTTTTTTTGTTAAAGTGCATATATTAAATTTTCCT [GTGCAC_site9677] | 9.47 |
| AAAAAAAATTCATATTGTACTTTTAAATTAAAGAAA [XGTACX_site4521] | 9.28 |
| AAATTTTTTGTTCAATGTACTTTTTTATTATATTTT [XGTACX_site5298] | 9.71 |
| ATTTTTTAAATTTAAACACACATTTTGTATATGTTT [CACACA_site1654] | 9.94 |
| GATATATAATATAATACACACATTTTATGAATGTAA [CACACA_site24] | 9.81 |
| TCTACTATTATATATTGTACAAATGATACTTATATT [XGTACX_site1819] | 9.74 |
| AAAAAAAAAAAACATACACACATACATACAGATATA [CACACA_site4681] | 10.1 |
